Measurements reported in PubChem BioAssay AID720708 (National Center for Advancing Translational Sciences (NCATS), 2013).
Screen size: about 360,000 compounds; about 660 (0.18%) were called active. Inconclusive means that the source gave no clear call. Such entries were picked first, then a sample of the others. Calls come from the whole dose curve; as a rule, active = well fitted inhibition curve with a large enough effect; inconclusive = small, poorly fitted or top-dose-only effect; inactive = no such curve, though single readings can be large or run the other way. Potencies of inconclusive entries are left out as doubtful fits.

Target: Rap guanine nucleotide exchange factor 4 (Homo sapiens) (UniProt Q8WZA2)
Assay: qHTS for Antagonist of cAMP-regulated guanine nucleotide exchange factor 2 (EPAC2): primary screen; note: nearly all actives have a fitted effect of over 45% in size
Details: EPAC2 GEF exchange of Rap1B-BODIPY-GDP, fluorescence; activity, negative = inhibition: at 114 µM (top of the series)
% is set by controls: 0 for no effect and ±100 for the full control effect; potency is the fitted concentration of half-maximal effect; tags give direction and shape of the fitted curve.

Sequence of UniProt Q8WZA2 (Q8WZA2 whole entry, looked up): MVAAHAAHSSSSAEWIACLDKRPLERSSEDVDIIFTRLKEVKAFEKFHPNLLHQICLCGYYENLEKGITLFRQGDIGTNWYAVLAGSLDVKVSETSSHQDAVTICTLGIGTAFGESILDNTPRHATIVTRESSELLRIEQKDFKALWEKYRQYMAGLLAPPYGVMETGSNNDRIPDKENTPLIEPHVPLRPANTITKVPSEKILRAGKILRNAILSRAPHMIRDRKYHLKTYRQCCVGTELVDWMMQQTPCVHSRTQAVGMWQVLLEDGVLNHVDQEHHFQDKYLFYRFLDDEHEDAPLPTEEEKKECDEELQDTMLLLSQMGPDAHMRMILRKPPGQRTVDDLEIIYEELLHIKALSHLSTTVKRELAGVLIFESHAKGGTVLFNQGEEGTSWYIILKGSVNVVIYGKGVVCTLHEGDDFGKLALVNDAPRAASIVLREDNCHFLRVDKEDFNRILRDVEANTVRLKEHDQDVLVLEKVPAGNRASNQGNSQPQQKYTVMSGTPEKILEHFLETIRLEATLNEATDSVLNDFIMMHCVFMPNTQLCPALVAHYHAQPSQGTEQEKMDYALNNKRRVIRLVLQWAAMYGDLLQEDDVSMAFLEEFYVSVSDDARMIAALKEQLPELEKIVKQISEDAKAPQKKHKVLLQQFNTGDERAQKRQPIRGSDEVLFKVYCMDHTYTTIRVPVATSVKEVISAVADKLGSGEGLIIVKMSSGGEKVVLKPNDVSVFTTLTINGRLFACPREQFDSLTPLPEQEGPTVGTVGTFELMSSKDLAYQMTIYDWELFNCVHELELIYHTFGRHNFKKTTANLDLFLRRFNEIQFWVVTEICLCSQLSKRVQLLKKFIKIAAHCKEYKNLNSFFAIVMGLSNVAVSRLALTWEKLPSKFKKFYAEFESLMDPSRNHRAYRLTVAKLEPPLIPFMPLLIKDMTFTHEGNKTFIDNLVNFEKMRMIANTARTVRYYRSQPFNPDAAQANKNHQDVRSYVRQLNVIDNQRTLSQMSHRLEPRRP

Row | SMILES | activity, negative = inhibition | Potency
1 | CCN(CC)CCCN=Cc1c(O)n(Cc2ccc(F)cc2)c(=O)[nH]c1=O | inactive: -2.76% | –
2 | CCOCCCn1c(N)c(C(=O)Nc2sc3c(c2C(=O)OC)CCCC3)c2nc3ccccc3nc21 | inactive: 9.98% | –
3 | C=C1C(=O)O[C@@H]2C[C@@H](C)[C@@H]3C=CC(=O)[C@@]3(C)[C@@H](OC(=O)CC(=O)O[C@H]3[C@@H]4C(=C)C(=O)O[C@@H]4C[C@@H](C)[C@@H]4C=CC(=O)[C@]43C)[C@H]12 | – | inconclusive [inhibitor, single point]
4 | O=C1C(=O)c2ccccc2-c2ccccc21 | – | inconclusive [inhibitor, partial curve]
5 | Cc1nc2c(=O)n(C)c(=O)nc-2n(C)n1 | – | inconclusive [inhibitor, partial curve]
6 | CCCN1CCc2cc(O)cc3c2[C@H]1Cc1ccc(O)c(O)c1-3 | inactive: 9.33% | –
7 | COCCCNC(=O)c1c(NC(=O)c2ccco2)n(Cc2ccccc2)c2nc3ccccc3nc12 | – | inconclusive [inhibitor, partial curve]
8 | CN(CCOc1ccc(C=C2C(=O)NC(=O)NC2=O)cc1)c1ccccn1 | – | inconclusive [inhibitor, partial curve]
9 | CC1(C)C(=O)CC[C@]2(C)C3C(=O)C=C4[C@H]5C[C@@](C)(C(=O)O)CC[C@]5(C)CC[C@]4(C)[C@]3(C)CC[C@@H]12 (some centres not stated) | – | inconclusive [inhibitor, full curve, poor fit]
10 | COc1ccccc1OCC(=O)N1CCCC(N(C)Cc2ccccc2)C1 (configuration not stated) | – | inconclusive [inhibitor, single point]
11 | C=C(C)C(Cc1c(OC)ccc(C(=O)/C=C/c2ccc(O)cc2)c1O)OO (configuration not stated) | – | inconclusive [inhibitor, partial curve, poor fit]
12 | COc1ccc(/C=C2/C(=O)N(Cc3ccco3)C(=O)N(C(C)C)C2=O)cc1 | inactive: 40.5% | –
13 | O=C1NC(=O)C(=Cc2ccccc2[N+](=O)[O-])C(=O)N1 | inactive: -1.42% | –
14 | COc1ccc(-c2nc3ccccc3c(=O)n2-c2ccc(OC)cc2)cc1 | – | inconclusive [inhibitor, partial curve]
15 | CCCCn1c(NC(=O)c2ccc(Br)o2)c(C(=O)OCC)c2nc3ccccc3nc21 | – | inconclusive [inhibitor, single point]
16 | O=c1[nH]c(O)c(C=Nc2ccccc2Sc2ccccc2)c(=O)[nH]1 | – | inconclusive [inhibitor, single point]
17 | C=C[C@]1(C)C[C@H]1[C@H](NP(=O)(c1ccccc1)c1ccccc1)c1ccccc1 | – | inconclusive [inhibitor, partial curve]
18 | Cc1oc(-c2ccccc2Cl)nc1CN1C(=O)CN=C(c2ccccc2)c2ccccc21 | – | inconclusive [inhibitor, full curve]
19 | CCOc1ccc2nc(N=Nc3c(O)[nH]c(=S)[nH]c3=O)sc2c1 | – | inconclusive [inhibitor, partial curve]
20 | Fc1ccc(Cn2nnnc2CN2CCC(n3nnc4cc(C(F)(F)F)ccc43)CC2)cc1 | inactive: -28.9% | –
21 | CCOC(=O)c1c(NS(=O)(=O)c2ccccc2)n(CCCOC)c2nc3ccccc3nc12 | – | inconclusive [inhibitor, full curve]

Row | SMILES | activity, negative = inhibition | Potency
22 | CCCCCN1C(=O)c2cc(OC)ccc2[C@@]2(C(=O)OCC)Cc3cc(OC)ccc3[C@@H]12 | – | inconclusive [inhibitor, full curve]
23 | O=[N+]([O-])c1ccc(N(CCO)CCO)c2c1no[n+]2[O-] | – | inconclusive [inhibitor, single point]
24 | O=C1NC(=O)N(Cc2ccc(F)cc2)C(=O)/C1=C\c1ccc([N+](=O)[O-])s1 | inactive: 0.179% | –
25 | Cn1cc(/C=C2\C(=O)NC(=O)N(c3ccccc3)C2=O)c2ccccc21 | inactive: 43.8% | –
26 | COc1ccc(-c2noc(=O)n2Cc2cc(C)ccc2C)cc1 | – | inconclusive [inhibitor, full curve]
27 | C=Cn1c(P(=S)(N2CCOCC2)N2CCOCC2)cc2c1CCCC2 | inactive: -9.06% | –
28 | CCOC(=O)c1c(-c2ccccc2)oc2ccc(OC(=O)N(C)C)cc12 | – | inconclusive [inhibitor, partial curve]
29 | O=C(C[C@H]1C=C[C@H](NC(=O)Nc2ccccc2F)[C@@H](CO)O1)NCc1ccc(-c2ccccc2)cc1 | – | inconclusive [inhibitor, full curve, poor fit]
30 | CCOC(=O)[C@]12Cc3cc(OC)ccc3[C@H]1N(C1CCCCC1)C(=O)c1ccccc12 | – | inconclusive [inhibitor, full curve]
31 | CC(C)N1C(=O)/C(=C/C=C/c2ccco2)C(=O)N(Cc2ccco2)C1=O | inactive: -2.2% | –
32 | CCOC(=O)[C@]12Cc3cc(OC)ccc3[C@H]1N(Cc1ccccc1)C(=O)c1cc(F)c(F)cc12 | – | inconclusive [inhibitor, single point]
33 | COc1ccc(OC)c(N2C(=O)/C(=C/c3ccco3)C(=O)NC2=S)c1 | – | inconclusive [inhibitor, single point]
34 | FC(F)(F)c1cccc(C2NCc3ccccc3-n3cccc32)c1 (configuration not stated) | – | inconclusive [inhibitor, partial curve, poor fit]
35 | Nc1ccc2c3c(cccc13)-c1ccccc1-2 | inactive: 117% | –
36 | CC1(C)OC(c2ccccc2)=C/C(=C/C=C2C(=O)NC(=S)NC2=O)O1 | – | inconclusive [inhibitor, full curve, poor fit]
37 | CC(=O)C1C2c3ccccc3OC1(C)N=c1s/c(=C/c3cn(C)nc3C)c(=O)n12 (configuration not stated) | – | inconclusive [inhibitor, single point]
38 | CN1C(=O)C2C[C@@]3(Br)c4ccccc4N(OOSc4ccccc4)[C@H]3N2C(=O)[C@@H]1Cc1ccccc1 (some centres not stated) | – | inconclusive [inhibitor, full curve, poor fit]
39 | CNC(C(=O)c1ccccc1)C(OC(C)C)c1ccc(Cl)cc1 (configuration not stated) | – | inconclusive [inhibitor, single point]
40 | O=C(O)CC1OCC=C2CN3CCC45C6=CC(=O)C(=O)C([N+](=O)[O-])=C6NC4C1C2CC35 (configuration not stated) | – | inconclusive [inhibitor, full curve]
41 | C[n+]1c2ccccc2nc2ccc(NCCO)cc21 | – | inconclusive [inhibitor, partial curve]
42 | COc1ccc(C(=O)C2CCCN(CCc3ccccc3)C2)cc1OC (configuration not stated) | – | inconclusive [inhibitor, single point]

Row | SMILES | activity, negative = inhibition | Potency
43 | CC(Cc1ccccc1)N1C(=O)c2ccccc2C1=O (configuration not stated) | – | inconclusive [inhibitor, partial curve]
44 | O=c1[nH]c(=S)n(-c2ccc(F)cc2)c(O)c1/C=N/N1CCOCC1 | inactive: 7.3% | –
45 | O=Cc1c(C(=O)O)n(Cc2ccc(F)cc2Cl)c2ccccc12 | – | inconclusive [inhibitor, partial curve]
46 | COc1ccc2c3c([nH]c2c1)C(C)NCC3 (configuration not stated) | – | inconclusive [inhibitor, single point]
47 | Cc1cc(/C=C2\C(=O)NC(=O)N(c3ccccc3)C2=O)c(C)n1-c1ccc(C(=O)O)c(Cl)c1 | – | inconclusive [inhibitor, partial curve]
48 | CCc1cc2c(cc1-c1csc(C/C(N)=N/O)n1)C(C)(C)CCC2(C)C | – | inconclusive [inhibitor, partial curve]
49 | CCOC(=O)c1c(-n2c(C)cc(/C=C3\C(=O)NC(=O)N(C)C3=O)c2C)sc2c1CCCC2 | inactive: -9.06% | –
50 | Cc1c(Cc2ccccc2)c(=O)oc2cc(OCc3ccc(C(=O)O)cc3)ccc12 | – | inconclusive [inhibitor, partial curve]
51 | O=[N+]([O-])c1ccc(N2CCOCC2)c2c1no[n+]2[O-] | – | inconclusive [inhibitor, single point]
52 | CC1(C)c2[nH]c3ccccc3c2C[C@H]2C(=O)N(Cc3ccccc3F)C(=O)N21 | – | inconclusive [inhibitor, full curve, poor fit]
53 | CCOP(=O)(OCC)C(Cc1ccc(OC)c(OC)c1)N=C(c1ccccc1)c1ccccc1 (configuration not stated) | – | inconclusive [inhibitor, single point]
54 | O=C(Nc1ccc(Oc2ccc(Cl)cc2)c(Cl)c1)c1cc(I)cc(I)c1O | – | inconclusive [inhibitor, full curve, poor fit]
55 | CCOC(=O)c1c(C=O)c2ccccc2n1Cc1ccccc1 | – | inconclusive [inhibitor, partial curve]
56 | CCOC(=O)c1c(C)n(Cc2ccc(F)cc2)c2ccc(O)cc12 | – | inconclusive [inhibitor, partial curve]
57 | CCOP(=S)(OCC)SCCSCC | – | inconclusive [inhibitor, full curve]
58 | CC/C(=N\NC(=O)c1ccccc1O)c1c(O)n(Cc2ccccc2)c(=O)[nH]c1=O | – | inconclusive [inhibitor, partial curve]
59 | CN1C(=O)NC(=O)/C(=C/c2ccc([N+](=O)[O-])o2)C1=O | inactive: -19.9% | –
60 | BrCC(Br)C1CCC(Br)C(Br)C1 (configuration not stated) | – | inconclusive [inhibitor, full curve]
61 | CC[n+]1c(/C=C/C=C/c2ccc(N(C)C)cc2)sc2ccccc21 | – | inconclusive [inhibitor, partial curve]
62 | Cc1cc(C)c(S(=O)(=O)N2Cc3ccccc3-n3nncc3C2)c(C)c1 | – | inconclusive [inhibitor, partial curve]
